# Measurements as given in article PMC9911399, “Two distinct binding modes provide the RNA-binding protein RbFox with extraordinary sequence specificity”.
# Substitutions are numbered along the chain they refer to; changes in the protein carry UniProt numbers. Some of the results follow.
# T1: RBFOX1 RRM (Homo sapiens, UniProt Q9NWB1 109-208)
# T1 sequence: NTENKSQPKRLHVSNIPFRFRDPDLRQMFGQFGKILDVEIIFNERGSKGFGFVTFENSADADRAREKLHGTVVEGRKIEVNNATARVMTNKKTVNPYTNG
# B1: AGACAUG (DNA:RNA)
# RNA: GGGAGACCGGAAUUCAGAUUGUCCAGACAUGUUAAAUCCCGUCGUAGCCACCA
# DNA 1: CAATCTGAATTCCGGTCTCCC
# DNA 2: TGGTGGCTACGACGGGATT
# B2: GGGCAUC (DNA:RNA)
# RNA: B1 RNA with A25G, A27G, G31C
# DNA 1: CAATCTGAATTCCGGTCTCCC
# DNA 2: TGGTGGCTACGACGGGATT
# B3: CGCGUAG (DNA:RNA)
# RNA: B1 RNA with A25C, A27C, C28G, A29U, U30A
# DNA 1: CAATCTGAATTCCGGTCTCCC
# DNA 2: TGGTGGCTACGACGGGATT
# B4: UUAGAAU (DNA:RNA)
# RNA: B1 RNA with A25U, G26U, C28G, U30A, G31U
# DNA 1: CAATCTGAATTCCGGTCTCCC
# DNA 2: TGGTGGCTACGACGGGATT
# B5: GGGAAUC (DNA:RNA)
# RNA: B1 RNA with A25G, A27G, C28A, G31C
# DNA 1: CAATCTGAATTCCGGTCTCCC
# DNA 2: TGGTGGCTACGACGGGATT
# B6: AACGGAG (DNA:RNA)
# RNA: B1 RNA with G26A, A27C, C28G, A29G, U30A
# DNA 1: CAATCTGAATTCCGGTCTCCC
# DNA 2: TGGTGGCTACGACGGGATT
# B7: UGUCCUC (DNA:RNA)
# RNA: B1 RNA with A25U, A27U, A29C, G31C
# DNA 1: CAATCTGAATTCCGGTCTCCC
# DNA 2: TGGTGGCTACGACGGGATT
# B8: CGCAAUU (DNA:RNA)
# RNA: B1 RNA with A25C, A27C, C28A, G31U
# DNA 1: CAATCTGAATTCCGGTCTCCC
# DNA 2: TGGTGGCTACGACGGGATT
# B9: CGUCUGC (DNA:RNA)
# RNA: B1 RNA with A25C, A27U, A29U, U30G, G31C
# DNA 1: CAATCTGAATTCCGGTCTCCC
# DNA 2: TGGTGGCTACGACGGGATT
# B10: GUUUAAG (DNA:RNA)
# RNA: B1 RNA with A25G, G26U, A27U, C28U, U30A
# DNA 1: CAATCTGAATTCCGGTCTCCC
# DNA 2: TGGTGGCTACGACGGGATT
# B11: AACAAAG (DNA:RNA)
# RNA: B1 RNA with G26A, A27C, C28A, U30A
# DNA 1: CAATCTGAATTCCGGTCTCCC
# DNA 2: TGGTGGCTACGACGGGATT
# B12: UUGCCUG (DNA:RNA)
# RNA: B1 RNA with A25U, G26U, A27G, A29C
# DNA 1: CAATCTGAATTCCGGTCTCCC
# DNA 2: TGGTGGCTACGACGGGATT
# B13: UAAUGAU (DNA:RNA)
# RNA: B1 RNA with A25U, G26A, C28U, A29G, U30A, G31U
# DNA 1: CAATCTGAATTCCGGTCTCCC
# DNA 2: TGGTGGCTACGACGGGATT
# B14: GAUCAGU (DNA:RNA)
# RNA: B1 RNA with A25G, G26A, A27U, U30G, G31U
# DNA 1: CAATCTGAATTCCGGTCTCCC
# DNA 2: TGGTGGCTACGACGGGATT
# B15: UACAACG (DNA:RNA)
# RNA: B1 RNA with A25U, G26A, A27C, C28A, U30C
# DNA 1: CAATCTGAATTCCGGTCTCCC
# DNA 2: TGGTGGCTACGACGGGATT
# B16: CGUCCGG (DNA:RNA)
# RNA: B1 RNA with A25C, A27U, A29C, U30G
# DNA 1: CAATCTGAATTCCGGTCTCCC
# DNA 2: TGGTGGCTACGACGGGATT
# B17: GCUUUGU (DNA:RNA)
# RNA: GGGAGACCGGAAUUCAGAUUGUCCGCUUUGUUUAAAUCCCGUCGUAGCCACCA
# DNA 1: CAATCTGAATTCCGGTCTCCC
# DNA 2: TGGTGGCTACGACGGGATT
# B18: GUGAAUC (DNA:RNA)
# RNA: B1 RNA with A25G, G26U, A27G, C28A, G31C
# DNA 1: CAATCTGAATTCCGGTCTCCC
# DNA 2: TGGTGGCTACGACGGGATT
# B19: GGACCCG (DNA:RNA)
# RNA: B1 RNA with A25G, A29C, U30C
# DNA 1: CAATCTGAATTCCGGTCTCCC
# DNA 2: TGGTGGCTACGACGGGATT
# B20: CUACUCU (DNA:RNA)
# RNA: B1 RNA with A25C, G26U, A29U, U30C, G31U
# DNA 1: CAATCTGAATTCCGGTCTCCC
# DNA 2: TGGTGGCTACGACGGGATT
# Biological target: T1, RBFOX1 RRM
# Experiment: EMSA; HiTS-Eq, 1 nM pool, 10 min; buffer printed only for the single-RNA assays: 10 mM Tris pH 7.5, 150 mM NaCl, 3.4 mM EDTA, 0.001% NP-40, 30 C
# Conditions: tags: His6 N-terminal (pET28a); label: 5' 32P
# In short: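 A pool of RNA with 7 randomized nucleotides, 5′-radiolabelled and with DNA-annealed flanks, was equilibrated at 1 nM for 10 min in 50 µL with purified RbFox RRM, wild type or mutant, across increasing protein concentrations. Free RNA was separated by 8% native PAGE, excised, reverse-transcribed, barcoded by PCR and sequenced. Relative association constants were obtained from read-count changes of each RNA species versus the control reaction and normalised to the cognate motif.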
row,Binder,binding signal
1,B1,0.0099 KA relative to UGCAUGU
2,B2,0.0179 KA relative to UGCAUGU
3,B3,0.0133 KA relative to UGCAUGU
4,B4,0.00773 KA relative to UGCAUGU
5,B5,0.0328 KA relative to UGCAUGU
6,B6,0.00672 KA relative to UGCAUGU
7,B7,0.0115 KA relative to UGCAUGU
8,B8,0.0051 KA relative to UGCAUGU
9,B9,0.0198 KA relative to UGCAUGU
10,B10,0.0157 KA relative to UGCAUGU
11,B11,0.00128 KA relative to UGCAUGU
12,B12,0.0452 KA relative to UGCAUGU
13,B13,0.012 KA relative to UGCAUGU
14,B14,0.0158 KA relative to UGCAUGU
15,B15,0.00858 KA relative to UGCAUGU
16,B16,0.00337 KA relative to UGCAUGU
17,B17,0.0222 KA relative to UGCAUGU
18,B18,0.0142 KA relative to UGCAUGU
19,B19,0.00406 KA relative to UGCAUGU
20,B20,0.00294 KA relative to UGCAUGU
